These are yes or no findings as the source states them, for the method shown. Binding seen in cells or lysates may run through a third protein. Tags and fused reporters may be left off the sequences shown.
Target: TDP43^219 (Val^219-TDP43^f), C-terminal fragment of human TDP43, amino acids 219 - 414, bearing N-terminal Val and a C-terminal FLAG tag (human) (UniProt Q13148)
Test: co-IP; anti-TDP43 IP from the soluble fraction of BAG6-KO HEK293T cells co-expressing FLAG-tagged TDP43 fragment with exogenous BAG6 (and TRC35, UBL4a, RNF126); anti-FLAG immunoblot

binding: no binding
B1: ubiquitin-like protein 4A (UBL4A), myc-FLAG-tagged (protein, UniProt P11441 1-157)
chain: MQLTVKALQGRECSLQVPEDELVSTLKQLVSEKLNVPVRQQRLLFKGKALADGKRLSDYSIGPNSKLNLVVKPLEKVLLEEGEAQRLADSPPPQVWQLISKVLARHFSAADASRVLEQLQRDYERSLSRLTLDDIERLASRFLHPEVTETMEKGFSK
